In all, about 310,000 compounds went through this assay and about 2,200 (0.71%) showed an effect of 50% or more. Effects have a minus sign here. Some of the results follow.

The target of this assay is human ether-à-go-go-related gene (hERG) potassium channel (human, UniProt Q12809). Description: primary screen, population patch clamp on CHO cells stably expressing hERG.
human ether-à-go-go-related gene (hERG) potassium channel, sequence (Q12809 whole entry, looked up): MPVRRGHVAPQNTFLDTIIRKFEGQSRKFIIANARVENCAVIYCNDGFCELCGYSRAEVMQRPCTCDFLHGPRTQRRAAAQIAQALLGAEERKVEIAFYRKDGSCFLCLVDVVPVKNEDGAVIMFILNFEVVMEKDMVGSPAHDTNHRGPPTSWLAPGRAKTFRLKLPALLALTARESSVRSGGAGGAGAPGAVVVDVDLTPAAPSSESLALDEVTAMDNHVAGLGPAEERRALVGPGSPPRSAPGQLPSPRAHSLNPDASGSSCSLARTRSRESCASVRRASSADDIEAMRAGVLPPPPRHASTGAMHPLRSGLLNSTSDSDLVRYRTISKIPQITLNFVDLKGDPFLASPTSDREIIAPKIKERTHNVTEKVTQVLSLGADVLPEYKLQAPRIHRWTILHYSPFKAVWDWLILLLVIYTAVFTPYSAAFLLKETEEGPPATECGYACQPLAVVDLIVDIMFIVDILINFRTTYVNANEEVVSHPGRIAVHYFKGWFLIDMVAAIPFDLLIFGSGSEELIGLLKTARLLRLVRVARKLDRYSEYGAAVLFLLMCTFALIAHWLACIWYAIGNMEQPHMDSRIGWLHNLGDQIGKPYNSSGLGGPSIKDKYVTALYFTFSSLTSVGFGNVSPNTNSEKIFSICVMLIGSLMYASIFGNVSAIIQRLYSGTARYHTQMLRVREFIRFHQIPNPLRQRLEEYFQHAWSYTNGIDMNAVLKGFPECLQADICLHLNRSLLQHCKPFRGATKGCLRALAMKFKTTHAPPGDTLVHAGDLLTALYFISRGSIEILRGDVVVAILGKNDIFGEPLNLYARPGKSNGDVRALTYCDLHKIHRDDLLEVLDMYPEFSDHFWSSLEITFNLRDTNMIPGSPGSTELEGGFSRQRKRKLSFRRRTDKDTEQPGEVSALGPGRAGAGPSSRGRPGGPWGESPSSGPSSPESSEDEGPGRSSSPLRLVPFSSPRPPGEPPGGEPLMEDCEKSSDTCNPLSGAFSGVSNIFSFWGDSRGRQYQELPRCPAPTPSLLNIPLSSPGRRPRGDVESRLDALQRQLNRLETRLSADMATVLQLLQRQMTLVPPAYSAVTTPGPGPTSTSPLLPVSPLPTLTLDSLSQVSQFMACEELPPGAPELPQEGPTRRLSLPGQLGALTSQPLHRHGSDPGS
As for `N=C1C(c2nc3ccccc3[nH]2)=C(O)CN1C1CCCCC1`, the “hERG current change (%, negative = inhibition) at 1uM” value is 8.46%.
Consider `COc1ccc(S(=O)(=O)N2CCCC2CNC(=O)C(=O)NC2CC2)cc1` (centres unmarked), for which the “hERG current change (%, negative = inhibition) at 1uM” value is 12.6%.
Under `CC(=O)N1CCSc2ccc(S(=O)(=O)NCc3ccccc3)cc21` stands 4.56%; under `O=C(CCn1cnc2ccccc21)N/N=C/C=C/c1ccccc1`, 4.35%; under `CC(=O)c1cccc(NC(=O)c2ccc3c(Cl)c4c(nc3c2)CCCC4)c1`, 2.68%.
Under `Brc1ccccc1OCCNCc1ccccc1.O=C(O)C(=O)O` stands 8.28%; under `Cc1nn(C)c(C(=O)N/N=C/c2ccc(C(F)(F)F)cc2)c1[N+](=O)[O-]`, 11.7%; under `O=C(NC1CCCCC1)n1c(=O)oc2cc(S(=O)(=O)N3CCCCC3)ccc21`, 5.37%.
As for `CC(=O)N1CCN(C(=O)C(Cc2ccccc2)NC(=O)c2ccccc2)CC1` (centres unmarked), the figure is 16.3%.
`CCN(CC)c1ccc(NC(=O)c2ccc(Br)o2)c(C)c1`: the “hERG current change (%, negative = inhibition) at 1uM” value came to 17.8%.
Under `O=C(c1ccc2ccccc2c1)N1CCN(S(=O)(=O)/C=C/c2ccccc2)CC1` stands -3.48%; under `CC(C)c1ccc(/C=C2\Oc3c(ccc(O)c3CN3CCN(C)CC3)C2=O)cc1`, 4.28%; under `CCN(CC)S(=O)(=O)c1ccc(C(=O)NC2=NCCS2)cc1`, 11.3%.
As to `Cc1ccc(S(=O)(=O)NC(Cc2ccccc2)C(=O)O)cc1` (centres unmarked), the “hERG current change (%, negative = inhibition) at 1uM” value was -1.77%.
Take `O=C(NC(=S)Nc1ccc2c(c1)OCCO2)c1ccc(F)cc1Cl`: the “hERG current change (%, negative = inhibition) at 1uM” value was 10.7%.
As for `C/C(NC1CCCC1)=C(/C#N)C(N)=O`, the figure is 5.83%; as for `CCOCCCn1c(SC(C)C(=O)NCC2CCCO2)nc2sc(C)c(C)c2c1=O` (centres unmarked), -0.916%.
Regarding `CC1=C2C(CCS2(=O)=O)CC2(C1)C(=O)OC(C)(C)OC2=O` (centres unmarked), the “hERG current change (%, negative = inhibition) at 1uM” value is given as 4.93%.
In the case of `CC(=O)N1CCN(CC(=O)Nc2cccc(S(=O)(=O)N3CCCCCC3)c2)CC1`, the “hERG current change (%, negative = inhibition) at 1uM” value was determined as 7.58%.
Turning to `CCOc1cc(/C=N/O)ccc1OCc1ccc([N+](=O)[O-])cc1`, the “hERG current change (%, negative = inhibition) at 1uM” value was -6.93%.
As for `O=C(Cn1cnc2c(cnn2-c2ccc(F)cc2)c1=O)NCC1CCCO1` (centres unmarked), the figure is 2.68%; as for `COc1cc(CCC(=O)OCC(=O)Nc2c(F)cccc2F)cc(OC)c1OC`, 5.03%; as for `COc1ccc(N2C(=O)C3CCCN3C2c2ccccc2)cc1Cl` (centres unmarked), 7.76%.
As for `C/C(=N\Nc1nc(C(C)(C)C)cs1)c1ccccc1`, the figure is 15.1%; as for `COc1ccc(CCNC(=O)Cn2c(=O)oc3cc(Cl)ccc32)cc1OC`, 10.3%; as for `Cc1ccc(C)c(-n2c(C)nc3ccccc3c2=O)c1`, 13.2%.
On to `COc1ccc(Br)cc1/C=C/C(=O)Nc1ccc(C)cc1`, for which the “hERG current change (%, negative = inhibition) at 1uM” value worked out at 8.12%.
In the case of `COC(=O)NC1c2ccccc2Oc2ccccc21`, the “hERG current change (%, negative = inhibition) at 1uM” value worked out at 11.4%.
As for `c1ccc(C2=Nn3c(nnc3-c3ccccn3)SC2)cc1`, the figure is 10.4%; as for `O=C(Cn1c(=O)cnc2ccccc21)Nc1ccccc1N1CCOCC1`, 9.06%; as for `Cc1c(OCC(=O)C(C)(C)C)ccc2c(-c3ccccc3)cc(=O)oc12`, 12.4%.
As for `CNC(=O)CN1C(=O)NC2(CCc3ccccc3C2)C1=O` (centres unmarked), the figure is 16.7%.
Regarding `COc1ccc(OC)c(S(=O)(=O)NCCOC23CC4CC(CC(C4)C2)C3)c1`, the “hERG current change (%, negative = inhibition) at 1uM” value is on record as -4.41%.
As for `Cc1c(C(=O)NCC2CCCO2)sc2nc(-c3ccccc3)cn12` (centres unmarked), the figure is -15.9%.
As for `COc1cccc(CN=c2c([N+](=O)[O-])nn(-c3ccccc3C)n2O)c1`, the figure is 11.1%; as for `Cc1ccc(NC(=O)COC(=O)CN2C(=O)c3ccccc3C2=O)cc1S(=O)(=O)N(C)C`, 10.4%.
`COc1ccccc1C(=O)Nc1ccc2[nH]ncc2c1`: the “hERG current change (%, negative = inhibition) at 1uM” value worked out at 8.7%.
In the case of `COc1ccc(C(c2sc3nc(C)nn3c2O)N2CC(C)OC(C)C2)cc1OC` (centres unmarked), the “hERG current change (%, negative = inhibition) at 1uM” value was determined as 6.83%.
Take `COC(=O)c1ccc(NC(=O)C2C3CCC(C3)C2C(=O)O)cc1` (centres unmarked): the “hERG current change (%, negative = inhibition) at 1uM” value is given as 3.27%.
Under `CCOc1cccc(CNCc2ccncc2)c1` stands 4.19%.
Under `Cc1cc(C)n(C(=O)CNC(=O)COc2ccccc2)n1` stands 11.4%; under `CCn1c(-c2cc(-c3ccc(C)cc3)nc3ccccc23)n[nH]c1=S`, 9.45%; under `O=C(c1ccc(CS(=O)(=O)c2c(Cl)cccc2Cl)o1)N1CCN(c2ccccn2)CC1`, -4.65%.
Take `COc1ccccc1N1CCN(S(=O)(=O)c2c(C)[nH]c(=O)[nH]c2=O)CC1`: the “hERG current change (%, negative = inhibition) at 1uM” value is given as 8.93%.
For `Cc1ccc(C)c(OCCCN2CCCC2)c1.O=C(O)C(=O)O`, the “hERG current change (%, negative = inhibition) at 1uM” value is given as -20%.
Consider `CCOC(=O)c1oc2ccccc2c1NC(=O)Cc1cccs1`, for which the “hERG current change (%, negative = inhibition) at 1uM” value amounted to 15.3%.
As for `CCC(C)c1ccc(S(=O)(=O)N2CC(=O)Nc3ccccc32)cc1` (centres unmarked), the figure is 11.8%; as for `Cn1/c(=N\NC(=O)c2ccccc2Cl)sc2ccccc21`, 6.15%.
As for `O=C(NCc1cccnc1)NC(=O)c1ccc(Cl)cc1`, the figure is 15.5%; as for `CCCn1c(C(C)NC(C)=O)nc2ccccc21` (centres unmarked), 12.3%; as for `CS(=O)(=O)N1Cc2ccccc2CC1C(=O)OCC(=O)Nc1ccc2ccccc2c1` (centres unmarked), 7.46%.
For the compound `COc1ccc(C2C([N+](=O)[O-])=C(C)N(C)C(=O)N2C)cc1OC` (centres unmarked), the “hERG current change (%, negative = inhibition) at 1uM” value amounted to 11.7%.
As for `CCc1ccc(NC(=O)CSc2nc3c(c(=O)n(C)c(=O)n3C)n2C)cc1`, the figure is 2.79%; as for `CCCCCOC(=O)C1[C@H]2C(=O)N(CCCOC)C[C@]23C=C[C@H]1O3` (some centres unmarked), 2.39%; as for `O=C(CNC(=O)OCc1ccccc1)NCC(=O)Nc1ccc(Br)cc1C(=O)c1ccccc1`, 10.8%.
As to `CC12CCC(C(=O)NC3CCCC3)(CC1=O)C2(C)C` (centres unmarked), the “hERG current change (%, negative = inhibition) at 1uM” value turned out to be 7.77%.
Under `O=C1C2C3c4ccccc4C(c4ccccc43)C2C(=O)N1Cc1ccco1` (centres unmarked) stands 4.25%; under `Cn1c(=O)n(C)c2cc([N+](=O)[O-])c(N3CCN(S(=O)(=O)c4ccccc4)CC3)cc21`, 3.45%.
`C[C@H](NC(=O)c1ccccc1)C(=O)OCC(=O)c1c[nH]c2ccccc12`: the “hERG current change (%, negative = inhibition) at 1uM” value is reported as -12.7%.
Turning to `O=C(c1[nH]ncc1-c1ccc(Cl)cc1)C1CO1` (centres unmarked), the “hERG current change (%, negative = inhibition) at 1uM” value came to 7.69%.
As for `COc1ccc(S(=O)(=O)N2CCN(Cc3c[nH]c4ccccc34)CC2)cc1`, the figure is 0.158%; as for `CCOC(=O)C/C(C)=N/NC(=O)CN(c1ccc(Br)cc1)S(=O)(=O)c1ccccc1`, 5.62%; as for `CCS(=O)(=O)n1nc(-c2ccc(OC)cc2)nc1SC`, 15.7%.
Consider `CC1CCN(CC(=O)Nc2ccc(S(=O)(=O)N3CCC(C)CC3)cc2)CC1.Cl`, for which the “hERG current change (%, negative = inhibition) at 1uM” value stood at 10.8%.
For `CCCN(CC(=O)Nc1ccccc1C)C(=O)c1ccc(S(=O)(=O)N2CCCC2)cc1`, the “hERG current change (%, negative = inhibition) at 1uM” value was determined as 6.35%.
As for `CCN(CC)C(=O)CSc1nnc(COc2ccc(OC)cc2)n1N`, the figure is 11.9%.
As for `O=C(Nc1ccccc1)c1ccc(OC(=O)c2ccccc2)cc1`, the figure is 14.9%; as for `O=C(CCC(=O)N(CC(=O)NC1CCCC1)c1ccccc1F)Nc1nccs1`, 1.53%.
Consider `Cc1ccc(C2CC(=O)C=C(NCC(C)C)C2)cc1` (centres unmarked), for which the “hERG current change (%, negative = inhibition) at 1uM” value is reported as 13.5%.
As for `NS(=O)(=O)c1ccc(CCNC(=O)CNC(=O)c2ccc(Br)o2)cc1`, the figure is 10.3%; as for `Cc1ccc(C2c3[nH]c4ccccc4c3C[C@H]3C(=O)N(c4ccccc4C(=O)N4CCC[C@H]4C(=O)O)C(=O)N23)cc1` (some centres unmarked), 13.3%; as for `CCOC(=O)[C@H]1[C@H]2COc3ccc(OC)cc3[C@@H]2N2C(=O)CN(Cc3ccc(C)cc3)C(=O)[C@@]12C`, 6.79%.
As for `O=C(O)C1C(c2ccccc2)C(C(=O)Oc2ccccc2)C1c1ccccc1` (centres unmarked), the figure is 8.27%; as for `CC(OC(=O)c1ccc(-n2cnnn2)cc1)C(=O)NCc1ccccc1` (centres unmarked), -3.66%.
As for `COc1ccccc1NC(=O)/C=C/C(=O)O`, the “hERG current change (%, negative = inhibition) at 1uM” value came to 10.5%.
For the compound `Cc1cccc(OCc2nnc(SCC(=O)N3CCN(C(=O)c4ccco4)CC3)n2C)c1C`, the “hERG current change (%, negative = inhibition) at 1uM” value is recorded as -10.8%.
Under `O=C(CSc1ncn(-c2ccccc2)n1)Nc1ccc(Br)cn1` stands -6.14%; under `CCc1nc(Nc2ccc3nccnc3c2)c2oc3ccccc3c2n1.Cl`, 11%; under `COc1cc(/C=C/C(=O)OCC(=O)NC(=O)NC(C)(C)C)cc(OC)c1OC`, 13.4%.
For `O=C(C1CCC(CNS(=O)(=O)c2cccc3nsnc23)CC1)N1CCN(c2ccccn2)CC1` (centres unmarked), the “hERG current change (%, negative = inhibition) at 1uM” value is listed as -4.83%.
For `CSc1ccccc1C(=O)C1CCCN(S(=O)(=O)N(C)C)C1` (centres unmarked), the “hERG current change (%, negative = inhibition) at 1uM” value was 3.79%.
Under `C/C=C(\C)CN1CCCC(CO)(Cc2ccccc2)C1` (centres unmarked) stands 4.42%; under `O=C(NC1CCCCC1)C(c1ccccn1)N(C(=O)c1csnn1)c1ccccc1` (centres unmarked), 4.98%.
Under `CCCCOc1ccc(NC(=O)c2cnc(C)cn2)cc1` stands 5.98%; under `Nc1cc(=O)[nH]c(N2CCN(c3ccccc3)CC2)n1`, 19.2%; under `CCCCOc1ccc(C(=O)Nc2cccc(C)n2)cc1`, 3.16%.
As for `N#C/C(=C/c1ccco1)c1nc2ccccc2s1`, the figure is 12.7%; as for `CC(=O)Nc1ccc(Br)c(Cl)c1`, 12.6%.
Take `Cc1cc(C)cc(NC(=O)CSc2cc(C(=O)c3nccn3C)c3ccccc3n2)c1`: the “hERG current change (%, negative = inhibition) at 1uM” value came out at 3.89%.

The record behind these values is article PMC4336329 (PLoS ONE, 2015).
